Experimental data: the supplement of paper PMC12217912
Some of the results follow. The full chains were built here from the parent and the listed change. Inactive controls read about 0.05.

B1: TEV protease; numbered along this chain (parent)
chain: MGESLFKGPRDYNPISSSICHLTNESDGHTTSLYGIGFGPFIITNKHLFRRNNGTLVVQSLHGVFKVKDTTTLQQHLVDGRDMIIIRMPKDFPPFPQKLKFREPQREERICLVTTNFQTKSMSSMVSDTSCTFPSGDGIFWKHWIQTKDGQCGSPLVSTRDGFIVGIHSASNFTNTNNYFTSVPKNFMELLTNQEAQQWVSGWRLNADSVLWGGHKVFMVKPEEPFQPVKEATQL

Variants of: B1
Assay: raw area under fraction-flipped curve 0-4 h after induction (AUC4h, not background-subtracted), DNA-recorder readout of cleavage of the substrate (dimensionless); higher = more cleavage of the substrate by the protease variant
Conditions: temperature: 34 °C; time window: 0-4 h after rhamnose induction
Experimental: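 In vivo DNA recorder in E. coli TOP10(DE3) ΔrhaA at 34 °C. Each TEVp single-site mutant (parent TEVp 0) is paired with a single-site variant of the 7-mer TEVs (canonical ENLYFQ|S). The substrate sits between flexible linkers in a Bxb1-sfGFP-TEVs-SsrA fusion, so cleavage stabilises Bxb1 and speeds flipping of a recombination array, read by NGS. The value is the raw area under the fraction-flipped curve over 0-4 h after rhamnose induction (AUC4h), with ≥20 reads per time point. It is not background-subtracted; inactive controls average about 0.047.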
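Also: Bxb1 expression induced with 0.2% (w/v) L-rhamnose at OD600 near 0.5, cultures sampled hourly, flipped fraction per protease–substrate barcode pair counted by paired-end Illumina sequencing.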

Variant	area with substrate ENLYFQA	area with substrate ENLYFQC	area with substrate ENLYFQD	area with substrate ENLYFQF	area with substrate ENLYFQG	area with substrate ENLYFQH	area with substrate ENLYFQI	area with substrate ENLYFQK	area with substrate ENLYFQL	area with substrate ENLYFQM	area with substrate ENLYFQN	area with substrate ENLYFQP	area with substrate ENLYFQR	area with substrate ENLYFQS	area with substrate ENLYFQT	area with substrate ENLYFQV	area with substrate ENLYFQW	area with substrate ENLYFQY	area with substrate ENLYFQE	area with substrate ENLYFQQ
MGESLFKGPRDYNPISSSICHLTNESDGHTTSLYGIGFGPFIITNKHLFRRNNGTLVVQSLHGVFKVKDTTTLQQHLVDGRDMIIIRMPKDFPPFPQKLKFREPQREERICLVTTNFQTKSMSSMVSDTSCTFPSGDGIFWKHWIQTKDGQCGSPLVSTRDGFIVGIHSASNFTNTNNYFTSVPKNFMELLTNQEAQQWVSGWRLNADSVLWGGHKVFMVKFEEPFQPVKEATQL [P222F]	0.0817	0.102	0.0674	0.0672	0.0769	0.0728	0.0537	0.0749	0.0576	0.0724	0.0676	0.0517	0.0664	0.0827	0.0645	0.0637	0.0706	0.0641	–	–
MGESLFKGPRDYNPISSSICHLTNESDGHTTSLYGIGFGPFIITNKHLFRRNNGTLVVQSLHGVFKVKDTTTLQQHLVDGRDMIIIRMPKDFPPFPQKLKFREPQREERICLVTTNFQTKSMSSMVSDTSCTFPSGDGIFWKHWIQTKDGQCGSPLVSTRDGFIVGIHSASNFTNTNNYFTSVPKNFMELLTNQEAQQWVSGWRMNADSVLWGGHKVFMVKPEEPFQPVKEATQL [L205M]	0.0994	0.122	–	–	0.111	–	0.0639	0.0716	0.0624	0.1	0.0913	–	0.0545	0.118	0.0613	0.0609	0.0561	0.0839	0.0453	0.0817
MGESLFKGPRDYNPISSSICHLTNESDGHTTSLYGIGFGPFIITNKHLFRRNNGTLVVQSLHGVFKVKDTTTLQQHLVDGRDMIIIRMPKDFPPFPQKLKFREPQREERICLVTTNFQTKSMSSMVSDTSCTFPSGDGIFWKHWIQTKDGQCGSPLVSTRDGFIVGIHSASNFTNTNNYFTSVPKNFMELLTNQEAQQWVSGWRGNADSVLWGGHKVFMVKPEEPFQPVKEATQL [L205G]	0.0821	–	0.085	0.0384	0.0681	0.0583	0.0514	0.0575	0.057	0.0475	–	0.0584	0.0572	0.0718	0.0536	–	0.0614	0.0607	–	0.0313
MGESLFKGPRDYNPISSSICHLTNESDGHTTSLYGIGFGPFIITNKHLFRRNNGTLVVQSLHGVFKVKDTTTLQQHLVDGRDMIIIRMPKDFPPFPQKLKFREPQREERICLVTTNFQTKSMSSMVSDTSCTFPSGDGIFWKHWIQTKDGQCGSPLVSTRDGFIVGIHSASNFTNTNNYFTSVPKNFMELLTNQEAQQWVSGWRLNADSVLWGGHKCFMVKPEEPFQPVKEATQL [V217C]	0.0906	–	0.0628	–	–	–	0.0595	0.0543	0.0653	0.0746	0.0787	–	0.0608	0.0937	0.0599	0.0717	0.0602	0.0882	0.0544	–
MGESLFKGPRDYNPISSSICHLTNESDGHTTSLYGIGFGPFIITNKHLFRRNNGTLVVQSLHGVFKVKDTTTLQQHLVDGRDMIIIRMPKDFPPFPQKLKFREPQREERICLVTTNFQTKSMSSMVSDTSCTFPSGDGIFWKHWIQTKDGQCGSPLVSTRDGFIVGIHSASNFTNTNNYFTSVPKNFMELLTNQEAQQWVSQWRLNADSVLWGGHKVFMVKPEEPFQPVKEATQL [G202Q]	0.0639	0.0776	0.0603	0.0672	–	–	0.0617	–	0.0619	0.0622	0.0532	0.0515	0.0566	0.0704	0.0616	0.0519	0.0649	0.0532	–	–
MGESLFKGPRDYNPISSSICHLTNESDGHTTSLYGIGFGPFIITNKHLFRRNNGTLVVQSLHGVFKVKDTTTLQQHLVDGRDMIIIRMPKDFPPFPQKLKFREPQREERICLVTTNFQTKSMSSMVSDTSCTFPSGDGIFWKHWIQTKDGQCGSPLVSTRDGFIVGIHSASNFTNTNNYFTSVPKNFMELLTNQEAQQWVSGWFLNADSVLWGGHKVFMVKPEEPFQPVKEATQL [R204F]	0.112	0.145	–	–	0.0957	0.0848	0.0591	0.0632	0.0637	0.0909	0.0661	0.0507	0.0649	0.113	0.0733	0.0635	0.0753	–	–	0.0903
MGESLFKGPRDYNPISSSICHLTNESDGHTTSLYGIGFGPFIITNKHLFRRNNGTLVVQSLHGVFKVKDTTTLQQHLVDGRDMIIIRMPKDFPPFPQKLKFREPQREERICLVTTNFQTKSMSSMVSDTSCTFPSGDGIFWKHWIQTKDGQCGSPLVSTRDGFIVGIHSASNFTNTNNYFTSVPKNFMELLTNQEAQQWVSGWLLNADSVLWGGHKVFMVKPEEPFQPVKEATQL [R204L]	0.099	0.12	0.0696	0.0516	0.11	0.0766	0.0446	0.0613	0.0563	0.0852	0.0707	0.0551	0.0583	0.0966	0.0667	0.045	0.0701	0.0814	–	–
MGESLFKGPRDYNPISSSICHLTNESDGHTTSLYGIGFGPFIITNKHLFRRNNGTLVVQSLHGVFKVKDTTTLQQHLVDGRDMIIIRMPKDFPPFPQKLKFREPQREERICLVTTNFQTKSMSSMVSDTSCTFPSGDGIFWKHWIQTKDGQCGSPLVSTRDGFIVGIHSASNFTNTNNYFTSVPKNFMELLTNQEAQQWVSGGRLNADSVLWGGHKVFMVKPEEPFQPVKEATQL [W203G]	0.056	0.0465	–	–	0.0746	–	–	0.0613	0.0583	0.0774	0.0519	0.0538	0.0637	0.062	0.0613	0.0521	0.047	0.0488	–	–
MGESLFKGPRDYNPISSSICHLTNESDGHTTSLYGIGFGPFIITNKHLFRRNNGTLVVQSLHGVFKVKDTTTLQQHLVDGRDMIIIRMPKDFPPFPQKLKFREPQREERICLVTTNFQTKSMSSMVSDTSCTFPSGDGIFWKHWIQTKDGQCGSPLVSTRDGFIVGIHSASNFTNTNNYFTSVPKNFMELLTNQEAQQWVSGNRLNADSVLWGGHKVFMVKPEEPFQPVKEATQL [W203N]	0.0684	–	–	0.0445	0.0476	0.0548	0.0537	–	0.0595	0.0506	0.0567	0.0708	0.0839	0.064	0.0572	–	0.0568	0.0632	–	0.0532
MGESLFKGPRDYNPISSSICHLTNESDGHTTSLYGIGFGPFIITNKHLFRRNNGTLVVQSLHGVFKVKDTTTLQQHLVDGRDMIIIRMPKDFPPFPQKLKFREPQREERICLVTTNFQTKSMSSMVSDTSCTFPSGDGIFWKHWIQTKDGQCGSPLVSTRDGFIVGIHSASNFTNTNNYFTSVPKNFMELLTNQEAQQWVSGWRLNADSVLWGGHKVFMWKPEEPFQPVKEATQL [V220W]	0.0614	0.115	0.0775	0.0553	0.091	–	0.0579	–	0.071	–	0.0746	0.0765	–	0.0894	0.063	0.0614	0.0549	0.0684	–	0.0836
MGESLFKGPRDYNPISSSICHLTNESDGHTTSLYGIGFGPFIITNKHLFRRNNGTLVVQSLHGVFKVKDTTTLQQHLVDGRDMIIIRMPKDFPPFPQKLKFREPQREERICLVTTNFQTKSMSSMVSDTSCTFPSGDGIFWKHWIQTKDGQCGSPLVSTRDGFIVGIHSASNFTNTNNYFTSVPKNFMELLTNQEAQQWVSGWRLNADSVQWGGHKVFMVKPEEPFQPVKEATQL [L211Q]	0.121	0.147	0.0647	–	0.131	–	0.0561	0.0592	0.065	0.0912	0.102	–	0.062	0.103	0.0667	–	0.0727	0.0587	–	–
MGESLFKGPRDYNPISSSICHLTNESDGHTTSLYGIGFGPFIITNKHLFRRNNGTLVVQSLHGVFKVKDTTTLQQHLVDGRDMIIIRMPKDFPPFPQKLKFREPQREERICLVTTNFQTKSMSSMVSDTSCTFPSGDGIFWKHWIQTKDGQCGSPLVSTRDGFIVGIHSASNFTNTNNYFTSVPKNFMELLTNQEAQQWVSGWRLNADSVLWGGHKVFMVKPIEPFQPVKEATQL [E223I]	0.0931	0.0885	–	–	0.0903	0.0631	0.0619	–	–	–	0.0657	0.0559	0.0598	0.0963	0.0605	–	0.0601	0.0648	–	–
MGESLFKGPRDYNPISSSICHLTNESDGHTTSLYGIGFGPFIITNKHLFRRNNGTLVVQSLHGVFKVKDTTTLQQHLVDGRDMIIIRMPKDFPPFPQKLKFREPQREERICLVTTNFQTKSMSSMVSDTSCTFPSGDGIFWKHWIQTKDGQCGSPLVSTRDGFIVGIHSASNFTNTNNYFTSVPKNFMELLTNQEAQQWVSGWRLNADSVLWGGHKVFMVKPEEPHQPVKEATQL [F226H]	0.105	0.124	0.0775	0.0876	0.119	0.0936	0.0623	–	0.0619	0.0825	0.0887	0.0343	0.0529	0.111	0.0621	–	0.066	0.0767	0.0862	0.0839
MGESLFKGPRDYNPISSSICHLTNESDGHTTSLYGIGFGPFIITNKHLFRRNNGTLVVQSLHGVFKVKDTTTLQQHLVDGRDMIIIRMPKDFPPFPQKLKFREPQREERICLVTTNFQTKSMSSMVSDTSCTFPSGDGIFWKHWIQTKDGQCGSPLVSTRDGFIVGIHSASNFTNTNNYFTSVPKNFMELLTNQEAQQWVSGWRLNADSVLWGGHKVFMVKPEEPMQPVKEATQL [F226M]	0.082	0.117	–	–	0.0809	0.0765	0.0638	0.0752	0.0587	0.087	0.0769	–	0.0417	0.101	–	–	0.0698	0.0841	–	–
MGESLFKGPRDYNPISSSICHLTNESDGHTTSLYGIGFGPFIITNKHLFRRNNGTLVVQSLHGVFKVKDTTTLQQHLVDGRDMIIIRMPKDFPPFPQKLKFREPQREERICLVTTNFQTKSMSSMVSDTSCTFPSGDGIFWKHWIQTKDGQCGSPLVSTRDGFIVGIHSASNFTNTNNYFTSVPKNFMELLTNQEAQQWVSGWRLNADSVLWGGHKVFMVKPEEPNQPVKEATQL [F226N]	0.0958	0.0969	0.0769	–	0.0964	0.0883	0.0585	0.065	0.0613	0.124	0.0879	–	0.0489	0.112	0.0699	–	0.0681	–	–	–
MGESLFKGPRDYNPISSSICHLTNESDGHTTSLYGIGFGPFIITNKHLFRRNNGTLVVQSLHGVFKVKDTTTLQQHLVDGRDMIIIRMPKDFPPFPQKLKFREPQREERICLVTTNFQTKSMSSMVSDTSCTFPSGDGIFWKHWIQTKDGQCGSPLVSTRDGFIVGIHSASNFTNTNNYFTSVPKNFMELLTNQEAQQWVSGWRLNADVVLWGGHKVFMVKPEEPFQPVKEATQL [S209V]	0.109	0.106	0.0804	–	0.0983	0.0897	–	0.0735	0.0615	0.0871	0.0794	–	–	0.101	0.0686	0.0711	–	–	–	–
MGESLFKGPRDYNPISSSICHLTNESDGHTTSLYGIGFGPFIITNKHLFRRNNGTLVVQSLHGVFKVKDTTTLQQHLVDGRDMIIIRMPKDFPPFPQKLKFREPQREERICLVTTNFQTKSMSSMVSDTSCTFPSGDGIFWKHWIQTKDGQCGSPLVSTRDGFIVGIHSASNFTNTNNYFTSVPKNFMELLTNQEAQQWVSGWRLNADSVLWGGHKVFSVKPEEPFQPVKEATQL [M219S]	0.0918	0.103	0.0624	–	–	–	0.0596	0.0655	0.0724	0.0671	0.0716	–	0.0576	0.0986	0.0553	0.0509	0.0634	0.0569	–	–
